This is one part of the list.
system: T1, Caupolican (Caup) homeodomain DNA-binding domain; assay: PBM E-score (8-mer, recovered from the published 9-mer minima) (E-score (dimensionless, -0.5 to 0.5)); Drosophila protein; higher = stronger relative binding preference, active = 0.31 or more
T1 sequence: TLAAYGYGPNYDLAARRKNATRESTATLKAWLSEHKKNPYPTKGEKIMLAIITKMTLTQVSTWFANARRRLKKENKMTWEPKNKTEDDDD
Summary of the method: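 Caup's homeodomain DNA-binding domain (residues 214-303) was made by in vitro transcription and translation and applied at 100 nM to custom-designed protein binding microarrays. Each value is an enrichment score that gives relative binding preference for a short DNA word, with higher meaning stronger. The 8-mer values were recovered from published 9-mer scores, each of which was the minimum of its two constituent 8-mer scores. A cutoff of 0.31 marks candidate sites.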

| Sequence | PBM E-score |
| --- | --- |
| ACTCTTAA | inactive: 0.0283 |
| ACTCATGC | inactive: -0.0368 |
| TAACGGCA | inactive: -0.0204 |
| AACCTGCG | inactive: -0.0921 |
| CCGAGTCG | inactive: -0.169 |
| ATCCAAGC | inactive: 0.00083 |
| CATCTACA | inactive: 0.21 |
| AAGCAAGT | inactive: 0.0473 |
| CCCACTAC | inactive: 0.0233 |
| ATAGACTA | inactive: 0.115 |
| GCATCAAA | inactive: 0.047 |
| AAGACTAC | inactive: 0.127 |
| CCACGTGC | inactive: -0.0144 |
| GACTGGCC | inactive: -0.191 |
| CCACGTGG | inactive: -0.252 |
| CACCTTGA | inactive: -0.0248 |
| ACCCACGC | inactive: -0.21 |
| TTCGAGAA | inactive: 0.043 |
| GGCGGCTA | inactive: -0.135 |
| CCTCGCCA | inactive: -0.206 |
| AGATCCTA | inactive: 0.0784 |
| AGACGCAC | inactive: -0.121 |
| GTGGTCGA | inactive: -0.00554 |
| CCGTAAGC | inactive: -0.107 |
| ACAAATCC | inactive: 0.179 |

| Sequence | PBM E-score |
| --- | --- |
| GGGTCATA | inactive: -0.00301 |
| AACACGGG | active: 0.32 |
| GACCGGTA | inactive: -0.146 |
| AAACTACT | inactive: 0.236 |
| AGCGAGCT | inactive: -0.108 |
| CGCGTGAG | inactive: -0.152 |
| AGGTTCAC | inactive: -0.0392 |
| ACTCCAGG | inactive: -0.135 |
| GCTAGTAA | inactive: 0.162 |
| AGTGTATA | inactive: 0.14 |
| CAATCTAA | inactive: 0.0833 |
| GAGTTCGC | inactive: -0.0905 |
| ATATCGCG | inactive: 0.00651 |
| AACGGAGA | inactive: -0.138 |
| CACAGGCA | inactive: 0.0441 |
| CGTTGATC | inactive: 0.0644 |
| AAAGATGT | inactive: 0.244 |
| CCTAGCCC | inactive: -0.275 |
| GAGGAGCC | inactive: -0.227 |
| ACGCGTGA | inactive: 0.0445 |
| ACTGTGGC | inactive: -0.137 |
| CGGCCGGC | inactive: -0.309 |
| GGTAACTA | inactive: 0.204 |
| AACGTACA | active: ≥ 0.337 |
| CAGGAAAG | inactive: -0.127 |

| Sequence | PBM E-score |
| --- | --- |
| CCTAAAAG | inactive: 0.0219 |
| GGCAGTCA | inactive: -0.0773 |
| CAAGGCTG | inactive: -0.00083 |
| CGTGCGTC | inactive: -0.022 |
| CATTCACC | inactive: -0.0438 |
| AACGCCCA | inactive: -0.065 |
| CACAGGGA | inactive: -0.0511 |
| CGTTCGGA | inactive: -0.0594 |
| CAGAAACC | inactive: -0.0673 |
| CTCCACTC | inactive: -0.156 |
| CGCCTTAG | inactive: -0.174 |
| AACGGCTC | inactive: -0.168 |
| AGCTGTCA | inactive: 0.107 |
| ATATAGCG | inactive: -0.0328 |
| AGCACCAT | inactive: -0.102 |
| CTCCGTCC | inactive: -0.201 |
| CAACGTGC | inactive: 0.0892 |
| CATATCCG | inactive: 0.0503 |
| GAATCCAC | inactive: -0.0265 |
| CGTGCAAG | inactive: 0.00178 |
| AGCTCTAT | inactive: -0.09 |
| AGGTAAAC | inactive: 0.129 |
| ACGAATAT | inactive: 0.144 |
| CGCTTAGC | inactive: -0.175 |
| CCGTGGCA | inactive: -0.0857 |

| Sequence | PBM E-score |
| --- | --- |
| AGCACCCG | inactive: -0.177 |
| GCGGCTCC | inactive: -0.283 |
| ACCTATTG | inactive: 0.0839 |
| GGAATCCC | inactive: -0.0784 |
| ATCACCCA | inactive: -0.0504 |
| GGTTATTA | inactive: 0.142 |
| GTACGACA | inactive: 0.299 |
| GGATCACC | inactive: -0.0274 |
| CTTAATTC | inactive: 0.0179 |
| GACAGCGA | inactive: 0.00082 |
| CACAGATA | inactive: 0.102 |
| ACGCATTC | inactive: -0.0689 |
| ACTTCACG | inactive: 0.0234 |
| AGCGACGC | inactive: -0.129 |
| ACGATAGC | inactive: 0.0824 |
| AAACACCG | inactive: 0.108 |
| ACTTTAGA | inactive: -0.0192 |
| CAGTCTGC | inactive: -0.0163 |
| AGGGACAC | inactive: 0.149 |
| GGGGCTTA | inactive: -0.208 |
| GGACCATA | inactive: -0.0456 |
| GTGCGGAA | inactive: 0.0604 |
| GATTCAAC | inactive: -0.0523 |
| ATGACCAC | inactive: 0.0659 |
| AAAAGCAT | inactive: 0.1 |

| Sequence | PBM E-score |
| --- | --- |
| AATTCCGC | inactive: -0.0948 |
| GCCGGACA | inactive: 0.0438 |
| ACGTCGGG | inactive: -0.16 |
| TAATTCTA | inactive: 0.147 |
| GCGCTCGA | inactive: -0.107 |
| CTCCTGGA | inactive: -0.17 |
| ATCCAGTG | inactive: 0.0502 |
| CCGCGTTA | inactive: -0.054 |
| CTGAGACA | inactive: 0.0775 |
| TTAAGCAA | inactive: 0.0959 |
| AGTTTAAG | inactive: 0.00138 |
| CTCAGGAA | inactive: -0.0747 |
| GATTAGGA | inactive: 0.0485 |
| ACTCGCTC | inactive: -0.103 |
| ATAGGCAA | inactive: 0.0661 |
| ATGTTATA | active: 0.381 |
| AGGAACCT | ≥ -0.00983 |
| AGGATTCC | inactive: 0.00145 |
| CTAGATGC | inactive: 0.0316 |
| AGCTCTTA | inactive: -0.0232 |
| CCATCTCC | inactive: -0.145 |
| GGCCGCCA | inactive: -0.276 |
| GACTGTGA | inactive: -0.0131 |
| CGACTCGA | inactive: 0.00401 |
| AGGCTTAA | inactive: -0.0948 |

| Sequence | PBM E-score |
| --- | --- |
| AAATGAAA | ≥ 0.139 |
| CGTCGGAA | inactive: 0.00767 |
| GAGATGGA | inactive: -0.0584 |
| ACGAGGGA | ≥ -0.00203 |
| CGCAAAGC | inactive: -0.2 |
| CTCCGAAA | inactive: -0.0447 |
| ACCCATCT | inactive: -0.0651 |
| CCACTTGC | inactive: -0.0315 |
| GGTATGTA | inactive: 0.277 |
| ATCTCCGC | inactive: -0.173 |
| CAAGAACA | inactive: 0.187 |
| CCGTTGCG | inactive: -0.204 |
| CACACGTA | inactive: 0.142 |
| ATCCCTAA | inactive: -0.09 |
| CGGCCAAC | inactive: -0.141 |
| AAAGCCGC | inactive: -0.213 |
| GCAGCGGC | inactive: -0.252 |
| GAGTGTGA | inactive: 0.0709 |
| GAGAAACA | inactive: 0.151 |
| CGGAGGGA | inactive: -0.227 |
| CCTTGGAG | inactive: -0.193 |
| AACGATTG | inactive: 0.13 |
| ACCAGGTA | inactive: 0.02 |
| AAATTGGA | inactive: 0.133 |
| AGGTAGTG | inactive: -0.021 |

| Sequence | PBM E-score |
| --- | --- |
| ACCGTCCT | inactive: -0.0635 |
| CAATGAGA | inactive: 0.0493 |
| ACGGTTAT | inactive: 0.0448 |
| GTTTCTTA | inactive: 0.091 |
| CCCATCGC | inactive: -0.194 |
| AGTGGCCG | inactive: -0.226 |
| CGTGACCC | inactive: -0.102 |
| AGATCGAA | inactive: 0.0457 |
| GGCTGAAA | inactive: -0.0736 |
| CTCTCGCC | inactive: -0.229 |
| GCGGGAAA | inactive: -0.129 |
| GAATTACA | inactive: 0.29 |
| ATGTCGGA | inactive: 0.263 |
| CGTATTAG | inactive: 0.125 |
| TCTAGAGA | inactive: -0.0673 |
| CAGTGATC | inactive: 0.0398 |
| CCCTGAGG | inactive: -0.185 |
| CCATAATA | inactive: 0.114 |
| AGATAGTC | inactive: 0.0191 |
| AAAAGGTT | inactive: -0.0248 |
| ATTCATCC | inactive: 0.0789 |
| ATTATTAA | inactive: 0.191 |
| TGAAAAAA | inactive: 0.0242 |
| CACGCCGG | inactive: -0.125 |
| AGATAATG | inactive: 0.131 |

| Sequence | PBM E-score |
| --- | --- |
| CGTTTGCC | inactive: -0.0961 |
| ATGAGGAC | inactive: -0.0171 |
| GCCATCGC | inactive: -0.205 |
| TATACTGA | inactive: 0.172 |
| ACAAAGTG | inactive: 0.058 |
| CTCATAGA | inactive: 0.0135 |
| ACGCGCGG | inactive: -0.171 |
| ACAATCGA | inactive: 0.11 |
| CAACCGGG | inactive: -0.162 |
| TCGCCCAA | inactive: -0.147 |
| ATGAATAC | inactive: 0.144 |
| CACATGGA | inactive: 0.156 |
| TGATTCAA | ≥ 0.125 |
| AAGTGCAA | inactive: 0.0804 |
| TGTGATAA | inactive: 0.207 |
| GCTTGATA | inactive: 0.00938 |
| ACCAGCGC | inactive: -0.106 |
| ATGCACAA | inactive: 0.143 |
| AAACATGG | active: 0.321 |
| AGGGCAGC | inactive: -0.267 |
| GTTGTAAA | inactive: 0.279 |
| ATATGATG | inactive: 0.183 |
| TCCTAAGA | inactive: -0.0374 |
| CGTCGGTA | inactive: -0.0821 |
| AGTCACCC | inactive: -0.129 |

| Sequence | PBM E-score |
| --- | --- |
| GAATAAAA | inactive: 0.0346 |
| AATGAAGT | inactive: 0.0706 |
| TCAAATGA | inactive: 0.062 |
| ATATCGGG | inactive: -0.0323 |
| ACGGCGAG | inactive: -0.0783 |
| GGACTCTA | inactive: -0.0786 |
| ACCACGTG | inactive: 0.0775 |
| ACGTGTAG | active: 0.321 |
| GCATCCCC | inactive: -0.194 |
| GCATACAA | inactive: 0.247 |
| AACGGGAA | ≥ -0.00669 |
| CTGAAGTC | inactive: -0.0729 |
| ACTCTAAA | inactive: 0.0521 |
| CTACCGCA | inactive: -0.0468 |
| AAGAGGTG | inactive: -0.00252 |
| ATTAAGTC | inactive: 0.0731 |
| CATAATCG | inactive: 0.173 |
| ACTACTAG | inactive: 0.189 |
| AGGTATTA | inactive: 0.144 |
| TCGGCGAA | inactive: -0.135 |
| GCTTGCCA | inactive: -0.0848 |
| AGCGCGCT | inactive: -0.0892 |
| GCCCTGCC | inactive: -0.238 |

Reference: the supplement of paper PMC3724861
